{"source": "ChEMBL document CHEMBL4888484", "about": "“Replenishing the malaria drug discovery pipeline: Screening and hit evaluation of the MMV Hit Generation Library 1 (HGL1) against asexual blood stage Plasmodium falciparum ,using a nano luciferase reporter read-out” (2022)", "note": "Hit rate of the full screen: of about 150,000 compounds, about 540 (0.36%) showed an effect of 50% or more. Some of the results follow."}
{"system": "Plasmodium falciparum", "experiment": "Primary screen in NF54 nanoGlo assay, in single point, at 2uM, 72h; a lower Z score goes with more inhibition", "assay_type": "functional, Erythrocyte", "conditions": "timepoint 72 hour", "units": {"% Inhibition": "%"}}
{"smiles": "CCOc1c(CNC(C)(C)CO)cc(Br)cc1OC", "% Inhibition": -10, "Z score": 1.15}
{"smiles": "CN1C(=O)COC(C(N)=O)C1c1ccccc1", "note": "(stereo not drawn)", "% Inhibition": -15, "Z score": 1.98}
{"smiles": "CN1CCN(CC(=O)N2CCC(OCc3ccccn3)CC2)C1=O", "% Inhibition": 7, "Z score": -1.31}
{"smiles": "CCOC(CN1CC(C)(C)C1(C)C)OCC", "% Inhibition": 3, "Z score": -0.3}
{"smiles": "CN(CCCNC(=O)c1cnc(-c2ccccn2)nc1O)c1ccccc1", "% Inhibition": -8, "Z score": 1.54}
{"smiles": "CCS(=O)(=O)N[C@@H](COC)c1ccccn1", "% Inhibition": -11, "Z score": 1.93}
{"smiles": "CN(C)c1cccc(-c2ccc3c(cnn3C)c2)c1", "% Inhibition": -6, "Z score": 0.97}
{"smiles": "COc1cc(=O)[nH]cc1C(=O)N1CCCC[C@H]1c1ccccc1", "% Inhibition": 3, "Z score": -0.43}
{"smiles": "Cc1cc(S(=O)(=O)N(C)CCNc2ccccn2)c(C)o1", "% Inhibition": -1, "Z score": 0.09}
{"smiles": "O=C1CC[C@H](NC(=O)C2(Cc3cccc(F)c3)CCCCC2)C2(CCC2)N1", "% Inhibition": 1, "Z score": -0.22}
{"smiles": "COCCOCC(=O)NCc1nc(C)c(C)s1", "% Inhibition": -5, "Z score": 1.01}
{"smiles": "COc1cccc(C(CNCc2c(C)nn(C3CCS(=O)(=O)C3)c2C)N2CCCC2)c1", "note": "(stereo not drawn)", "% Inhibition": -6, "Z score": 0.76}
{"smiles": "COc1ccccc1S(=O)(=O)N(c1ccc2[nH]ccc2c1)[C@@H](C)CC(C)C", "% Inhibition": -1, "Z score": 0.23}
{"smiles": "CN(C)CC(=O)N1CC[C@H]2COC(=O)N2c2cc(F)ccc2C1", "% Inhibition": 7, "Z score": -0.92}
{"smiles": "COc1ccc(CCNCCC(=O)N2CCC[C@H](C)C2)cc1", "% Inhibition": -19, "Z score": 2.4}
{"smiles": "Cc1cc(NC(=O)C(C)NC2CCCN(Cc3noc(C)n3)C2)on1", "note": "(stereo not drawn)", "% Inhibition": -13, "Z score": 1.5}
{"smiles": "Cc1ccc(CNC(=O)c2nnc(-c3oc4ccc(C)cc4c3C)o2)cc1", "% Inhibition": 13, "Z score": -1.56}
{"smiles": "CCc1ccc(CNC(=O)[C@H](CC)n2nc(C)c3nn(-c4ccccc4)c(C)c3c2=O)cc1", "% Inhibition": -3, "Z score": 0.36}
{"smiles": "Nc1nc(-c2ccncc2)cc(N2CCCC2)n1", "% Inhibition": -21, "Z score": 1.96}
{"smiles": "O=C(NCCN1CCN(c2ncnc3[nH]ncc23)CC1)C1CCC1", "% Inhibition": 4, "Z score": -0.58}
{"smiles": "COCc1nc([C@@H]2CCCCCN2C(=O)Nc2c(F)cccc2F)no1", "% Inhibition": -10, "Z score": 1.03}
{"smiles": "CCCC(=O)N1CCC(N2C[C@@H]3NC(=O)CN(CCOC)C(=O)CCc4ccc(OC)c(c4)Oc4cccc(c4)CO[C@H]3C2)CC1", "% Inhibition": -9, "Z score": 1.78}
{"smiles": "COc1ccc(-c2cn3c4ccccc4nc3n2CCN2CCN(C)CC2)cc1", "% Inhibition": 27, "Z score": -3.09}
{"smiles": "CCCCCNC(=O)c1nc(-c2ccc(N3CCCCC3)nc2)no1", "% Inhibition": 0, "Z score": 0.04}
{"smiles": "COc1ccc(Cl)cc1C(=O)N1N=C(C2CC2)C[C@]1(O)C(F)(F)F", "% Inhibition": 3, "Z score": -0.52}
{"smiles": "Cn1nc(C(=O)Nc2nc3c(s2)CN(S(=O)(=O)C2CC2)CC3)ccc1=O", "% Inhibition": -9, "Z score": 1.27}
{"smiles": "Cc1cc(NC(=O)NC(C)(C)C(=O)NCC(C)(C)C)c(C)cn1", "% Inhibition": 3, "Z score": -0.5}
{"smiles": "O=C1CCN(C(=O)Nc2ccccc2)CCN1", "% Inhibition": -17, "Z score": 3.4}
{"smiles": "COCC(=O)N[C@@H](C)C(=O)N(C)CC(=O)Nc1c(C)cc(C)cc1C", "% Inhibition": 29, "Z score": -3.23}
{"smiles": "CC1COC(c2ccccc2)C(C)N1C(=O)c1cccn1C", "note": "(stereo not drawn)", "% Inhibition": -8, "Z score": 0.99}
{"smiles": "COc1ccccc1-c1nnc(Cn2cnc3c2CCCC3)o1", "% Inhibition": -5, "Z score": 0.87}
{"smiles": "Cc1nc(Cn2cc(-c3ccc(C)c(C)c3)nn2)n[nH]1", "% Inhibition": -14, "Z score": 2.08}
{"smiles": "CO[C@@H](C)c1cccc(NC(=O)N(C)Cc2noc(C)n2)c1", "% Inhibition": -11, "Z score": 1.62}
{"smiles": "COc1ccc2[nH]c(CN3CCC(c4ccnc(N)n4)CC3)c(C)c2c1", "% Inhibition": 1, "Z score": -0.13}
{"smiles": "O=C(c1cc(-c2ccc3c(c2)CCCC3)on1)N(Cc1ccccc1Cl)[C@H]1CCS(=O)(=O)C1", "% Inhibition": -9, "Z score": 1.86}
{"smiles": "CC[C@@H]1Oc2ccc(OCc3cccc(F)c3)cc2NC1=O", "% Inhibition": -7, "Z score": 0.98}
{"smiles": "O=C(NC1CCN(C(=O)Cn2cc(C(F)(F)F)ccc2=O)CC1)c1ccncc1", "% Inhibition": -3, "Z score": 0.45}
{"smiles": "NC(=O)c1ccccc1NC(=O)c1cc(N2CCCC2)ncn1", "% Inhibition": 0, "Z score": 0}
{"smiles": "COCCn1ccc(NC(=O)CN(C)C(C)C)n1", "% Inhibition": -10, "Z score": 0.99}
{"smiles": "COC[C@@H](c1ccccn1)N(C)C(=O)CCc1cn2ccccc2n1", "% Inhibition": -11, "Z score": 1.42}
{"smiles": "CCCO[C@@H](C)C(=O)N1CCC2(CCC(=O)N(Cc3cccnc3)C2)CC1", "% Inhibition": 0, "Z score": 0.06}
{"smiles": "CCC=C(C)C(=O)N1CCC[C@H](CCC(=O)O)C1", "% Inhibition": -17, "Z score": 2.35}
{"smiles": "COCc1cn(C2CCN(c3nccc4ccccc34)CC2)nn1", "% Inhibition": -6, "Z score": 0.77}
{"smiles": "CNC(=O)NC(=O)C(C)NC1CCCC1CCC(C)C", "note": "(stereo not drawn)", "% Inhibition": -3, "Z score": 0.51}
{"smiles": "CC(=O)N(CCN1CCOCC1)[C@H]1CCN(C(=O)c2ccc3ncccc3c2)C1", "% Inhibition": -13, "Z score": 1.71}
{"smiles": "Cc1nc(-c2ccccc2NC(=O)c2ccccc2C(F)(F)F)cs1", "% Inhibition": 10, "Z score": -1.25}
{"smiles": "O=C(NCc1ccccc1Cl)c1csc(-c2ccnc(N3CCCC3)c2)n1", "% Inhibition": -12, "Z score": 1.53}
{"smiles": "COc1ccc(F)c(C(=O)N2C[C@H]3CC[C@@H](C2)N(CC2CC2)C3)c1F", "% Inhibition": -2, "Z score": 0.3}
{"smiles": "Cc1cccc(CS(=O)(=O)N2CCC(Oc3cccc4cccnc34)CC2)c1", "% Inhibition": -7, "Z score": 1.25}
{"smiles": "CC(NC(=O)C(C1CC1)N1CCCC1)c1nc(C2CCCC2)no1", "note": "(stereo not drawn)", "% Inhibition": -11, "Z score": 1.35}
{"smiles": "O=C(CN1CCOCC1)N1CCN(c2ncnc3cc(-c4ccc(F)cc4)sc23)CC1", "% Inhibition": -13, "Z score": 2.5}
{"smiles": "O=S(=O)(CC1CCOC1)N1CCC[C@@H]1CCc1ccccn1", "note": "(stereo partly drawn)", "% Inhibition": -5, "Z score": 0.84}
{"smiles": "Cc1cccc(-c2nc(N)n(C(=O)c3cccc4ccccc34)n2)c1", "% Inhibition": -11, "Z score": 1.76}
{"smiles": "CC(=O)NCC1CN(C(=O)[C@H]2C3CCC(CC3)[C@@H]2C(F)(F)F)CCO1", "note": "(stereo partly drawn)", "% Inhibition": -13, "Z score": 2.43}
{"smiles": "Cn1c(=O)c2sc(N3CCCC3)nc2n(CC(=O)N2CCc3ccccc32)c1=O", "% Inhibition": -6, "Z score": 0.93}
{"smiles": "CCO[C@@H](C)c1nc(CONC(=O)C(C)(C)C)cs1", "% Inhibition": -1, "Z score": 0.07}
{"smiles": "CCN(C)C[C@H]1CCN(C(=O)CN(C)C(C)C)C1", "% Inhibition": -10, "Z score": 1.39}
{"smiles": "C[C@H]1CN(C(=O)c2ccc(C(N)=O)cc2)C[C@@H]1C(=O)OC(C)(C)C", "% Inhibition": -6, "Z score": 0.78}
{"smiles": "CCCOc1ccc(CN2CCC[C@H]2c2c(C)noc2C)cc1", "% Inhibition": 13, "Z score": -1.79}
{"smiles": "Cn1cc(C(NC(=O)CCc2cn3ccccc3n2)[C@H]2C[C@@H](O)C2)cn1", "note": "(stereo partly drawn)", "% Inhibition": -14, "Z score": 2.38}
{"smiles": "CCCc1[nH]nc(-c2ccccc2OC)c1NC(=O)c1cccc(F)c1", "% Inhibition": -7, "Z score": 0.88}
{"smiles": "CCCn1c(=O)c(-c2nc(-c3ccc(F)c(F)c3)no2)c(O)c2ccccc21", "% Inhibition": 9, "Z score": -1.17}
{"smiles": "C=CCNC(=O)N(CC(C)C)[C@@H](CC)c1ccccc1", "% Inhibition": -2, "Z score": 0.3}
{"smiles": "CC(C)c1noc(CNC(=O)NCc2ccco2)n1", "% Inhibition": -7, "Z score": 0.75}
{"smiles": "CNC(=O)c1ccc(CN2CCC[C@](CC=C(C)C)(C(=O)O)C2)cc1", "% Inhibition": -7, "Z score": 1.28}
{"smiles": "CCN(CC)[C@H]1CCN(C(=O)c2cc(Cl)ccc2OC2CCN(C(C)=O)CC2)C1", "% Inhibition": -9, "Z score": 1.33}
{"smiles": "CCOc1ccccc1C(=O)N1CCC[C@H]2CN(C)C[C@H]21", "% Inhibition": -7, "Z score": 0.91}
{"smiles": "Cc1ncc(C(C)NC[C@@H]2CCCN2CC(C)C)c(C)n1", "note": "(stereo partly drawn)", "% Inhibition": -5, "Z score": 0.57}
{"smiles": "O=C1NC(=O)[C@H](CCC(=O)N(Cc2ccc(F)cc2)C2CCCCC2)N1", "% Inhibition": 3, "Z score": -0.53}
{"smiles": "Cc1cc(C(=O)N[C@@H]2CC=CCC2)no1", "% Inhibition": -6, "Z score": 0.98}
{"smiles": "COc1ccccc1CNc1c(-c2nc(C(C)C)no2)cnc2nc(C)ccc12", "% Inhibition": -15, "Z score": 1.8}
{"smiles": "O=C(c1coc(COc2ccc3c(c2)OCO3)n1)N1[C@@H]2CC[C@H]1C[C@@H](O)C2", "% Inhibition": -13, "Z score": 1.99}
{"smiles": "Nc1ccnc(N2CCN(Cc3cncn3C3CC3)C[C@H](O)C2)n1", "% Inhibition": 1, "Z score": -0.16}
{"smiles": "CCc1nc(CNc2ncnc3[nH]cnc23)no1", "% Inhibition": -1, "Z score": 0.21}
{"smiles": "Cc1nc2c(NC[C@H]3CCCN(S(C)(=O)=O)C3)ncnc2o1", "% Inhibition": -13, "Z score": 2.27}
{"smiles": "CCn1cc(CNC(=O)c2cccc(S(=O)(=O)N[C@H]3CCOC3)c2)cn1", "% Inhibition": -5, "Z score": 0.97}
{"smiles": "Nc1ccc(S(=O)(=O)CCCN2CCCC2)cc1", "% Inhibition": -10, "Z score": 1.24}
{"smiles": "CN(Cc1ccsc1)C(=O)c1ccc(-n2cnnn2)cc1", "% Inhibition": -2, "Z score": 0.34}
{"smiles": "N#Cc1c(-c2ccc(F)cc2)ccnc1Oc1ccccc1", "% Inhibition": -8, "Z score": 1.07}
{"smiles": "Nc1cccc(-c2nc(Cn3cncn3)n[nH]2)c1", "% Inhibition": 0, "Z score": -0.07}
{"smiles": "Cc1cc(N2CC[C@](C)(O)[C@H](O)C2)nc(N2CCOCC2)n1", "% Inhibition": 6, "Z score": -0.98}
{"smiles": "Cc1cccc(C)c1NC(=O)N1CCC2(CC1)C(=O)N(CC(=O)N1CCCCC1)CN2c1ccccc1", "% Inhibition": 2, "Z score": -0.16}
{"smiles": "CCOc1ccc2nc(-n3nc(C)c4c3NC(=O)C[C@@H]4c3cccnc3)sc2c1", "% Inhibition": 14, "Z score": -1.73}
{"smiles": "CCCC[C@@]1(O)COC2(CN(C(=O)c3noc(C)c3COC)C2)C1", "% Inhibition": -7, "Z score": 1.05}
